{
  "source": "the RNAGym collection of RNA variant scans (doi:10.7554/elife.90254)",
  "parents": {"B1": {"name": "LINE1-mini (parent)", "chain": "GGCAGAGCUCAACACAGCGUGGCAAAGUGGCUGUGGCUAGACUGCC"}},
  "note": "Read counts are not given, so values of variants with three or more changes are uncertain.",
  "data": [
    {"variants_of": "B1", "experiment": "self-cleavage, relative activity (ratio to wild type); higher = more cleavage; in vitro, sequencing; the parent is a self-cleaving ribozyme", "values": [
      {"variant": "GGCAGAGCUCAACACACCGUGGGAAAGAGGCUGUGGCGAGACUGCU", "note": "[G17C C23G U28A U38G C46U]", "self-cleavage": 0.01},
      {"variant": "GGCAGAGCUCAACACACUGUGGCAAAGUAUCUGUGGCUAGAAUGCC", "note": "[G17C C18U G29A G30U C42A]", "self-cleavage": 0.08},
      {"variant": "GGCAGAGCUCAACACACCGUGGCAAAGUUGCCGUGGCUAGACUGCC", "note": "[G17C G29U U32C]", "self-cleavage": 0.04},
      {"variant": "GGCAGAGCUCAACACACCGUGGCAAAGUGGCUGUGGGCAGACUGCC", "note": "[G17C C37G U38C]", "self-cleavage": 0.15},
      {"variant": "GGCAGAGCUCAACACACCCUGGCAACGUGGCUGUGGCUAGACUGCC", "note": "[G17C G19C A26C]", "self-cleavage": 0.47},
      {"variant": "GGCAGAGCUCAACACACCGUAGAAAAGUGGCUGUGGCUAGACUGCC", "note": "[G17C G21A C23A]", "self-cleavage": 0.8},
      {"variant": "GGCAGAGCUCAACACACCGUGGAAAAGUGGCUGUGGCUAGACUCCC", "note": "[G17C C23A G44C]", "self-cleavage": 0.11},
      {"variant": "GGCAGAGCUCAACACACCGUGGCAAAAAGGCUGUGGCUAGACUGCC", "note": "[G17C G27A U28A]", "self-cleavage": 0.23},
      {"variant": "GGCAGAGCUCAACACACCGUGGGAAAGUGGCUGUGGUUAGACUGCC", "note": "[G17C C23G C37U]", "self-cleavage": 0.06},
      {"variant": "GGCAGAGCUCAACACACCGUGGCAAAGUGUCUGUGGGUAGACUGCC", "note": "[G17C G30U C37G]", "self-cleavage": 0.06},
      {"variant": "GGCAGAGCUCAACACACCAUGGCAAAGUGCCUGUGGCUAGACUGCC", "note": "[G17C G19A G30C]", "self-cleavage": 0.11},
      {"variant": "GGCAGAGCUCAACACACCGUGGCAAAGUGGCUGUGGUGAGACUGCC", "note": "[G17C C37U U38G]", "self-cleavage": 0.01},
      {"variant": "GGCAGAGCUCAACACACCGUGACUAAGUGGCUGUGGCUGGACUGCC", "note": "[G17C G22A A24U A39G]", "self-cleavage": 0.15},
      {"variant": "GGCAGAGCUCAACACACCGUGACAAAGUGGCUGUGGCUAAACUUCC", "note": "[G17C G22A G40A G44U]", "self-cleavage": 0.03},
      {"variant": "GGCAGAGCUCAACACACCGUGGCAAAGUGGCUGUGGAUAGAAUGCC", "note": "[G17C C37A C42A]", "self-cleavage": 0.01},
      {"variant": "GGCAGAGCUCAACACACCGUGGCAAAGUUACUGUGGGUAGACUGCC", "note": "[G17C G29U G30A C37G]", "self-cleavage": 0.06},
      {"variant": "GGCAGAGCUCAACACACCGUGGCAAAUUGGCUGUGGCUAUAGUGCU", "note": "[G17C G27U G40U C42G C46U]", "self-cleavage": 0.06},
      {"variant": "GGCAGAGCUCAACACACCGUGGCAAAGUGUCUGUGACUAGACUGCC", "note": "[G17C G30U G36A]", "self-cleavage": 0.05},
      {"variant": "GGCAGAGCUCAACACACCGUGCCAAAGUGGCUGGGGAUGGACUGCC", "note": "[G17C G22C U34G C37A A39G]", "self-cleavage": 0.03},
      {"variant": "GGCAGAGCUCAACACACCGUGUCAAAGUGACUGUGGCUAGACUGCC", "note": "[G17C G22U G30A]", "self-cleavage": 0.5},
      {"variant": "GGCAGAGCUCAACACACCGUGGCAAAGUGGGUGUUGAUAGACUGCC", "note": "[G17C C31G G35U C37A]", "self-cleavage": 0.03},
      {"variant": "GGCAGAGCUCAACACACCGUGGCAAAGUGUUUGUGGAUAGACUGCC", "note": "[G17C G30U C31U C37A]", "self-cleavage": 0.14},
      {"variant": "GGCAGAGCUCAACACACCGUGGCAAAGUGACUAUGGUUAGACUGCC", "note": "[G17C G30A G33A C37U]", "self-cleavage": 0.02},
      {"variant": "GGCAGAGCUCAACACACCGUGGCAAAGUGGCUGUGGCUAGAAGGCC", "note": "[G17C C42A U43G]", "self-cleavage": 0.02},
      {"variant": "GGCAGAGCUCAACACACCGUGGCAAAGUGUAUAUGGCUAGACUGCC", "note": "[G17C G30U C31A G33A]", "self-cleavage": 0.01},
      {"variant": "GGCAGAGCUCAACACACCAUGGCAAAGUGGCUUUGGCUAGACUGCC", "note": "[G17C G19A G33U]", "self-cleavage": 0.04},
      {"variant": "GGCAGAGCUCAACACACCGUAGCAAAGUGGCGGUGGCUAGACUGCC", "note": "[G17C G21A U32G]", "self-cleavage": 0.13},
      {"variant": "GGCAGAGCUCAACACACCGUGGCAAAUUGGCUGUGGUUAGACUGCC", "note": "[G17C G27U C37U]", "self-cleavage": 0.04},
      {"variant": "GGCAGAGCUCAACACACCGUGGCAAAGUAGCUUUGGCUAGACUGUC", "note": "[G17C G29A G33U C45U]", "self-cleavage": 0.06},
      {"variant": "GGCAGAGCUCAACACACCGUGGCAAAGUGACUGUGGCUAGACUGCU", "note": "[G17C G30A C46U]", "self-cleavage": 0.06},
      {"variant": "GGCAGAGCUCAACACACCCUGGCAAAGUGGCUAUGGCUAGGCUGCC", "note": "[G17C G19C G33A A41G]", "self-cleavage": 0.07},
      {"variant": "GGCAGAGCUCAACACACCGUAGCAAAGUGGUUGUGGCUAGACUGCC", "note": "[G17C G21A C31U]", "self-cleavage": 0.11},
      {"variant": "GGCAGAGCUCAACACACCGUGGCAAAGUGGCUGUGGAAAGACUGCC", "note": "[G17C C37A U38A]", "self-cleavage": 0.06},
      {"variant": "GGCAGAGCUCAACACACCGUGGCAAAGUGGCUGUGGAUAGACUAUC", "note": "[G17C C37A G44A C45U]", "self-cleavage": 0},
      {"variant": "GGCAGAGCUCAACACACCGUGCCAGAGUGGCUGUGGCUAGACUGCC", "note": "[G17C G22C A25G]", "self-cleavage": 0.18},
      {"variant": "GGCAGAGCUCAACACACCGUGGCAAAUUAGCUGUGGCUAGAUUGCA", "note": "[G17C G27U G29A C42U C46A]", "self-cleavage": 0.02},
      {"variant": "GGCAGAGCUCAACACACCGUGGUAAACUGGCUCUGGCUAAACUGCC", "note": "[G17C C23U G27C G33C G40A]", "self-cleavage": 0.05},
      {"variant": "GGCAGAGCUCAACACACCCUGGCAAAGUGGCUGUGGCCAGACUGCC", "note": "[G17C G19C U38C]", "self-cleavage": 0.03},
      {"variant": "GGCAGAGCUCAACACACCGUGGCAAAAUGGAUGUGGCUAGACUGCC", "note": "[G17C G27A C31A]", "self-cleavage": 0.71},
      {"variant": "GGCAGAGCUCAACACACCGUCGGAAAGUGGCUGUGGCUAGUCUGCC", "note": "[G17C G21C C23G A41U]", "self-cleavage": 0.32},
      {"variant": "GGCAGAGCUCAACACACCGUUGCAAAGUGGCUGUGGCUAGACAGCC", "note": "[G17C G21U U43A]", "self-cleavage": 0.05},
      {"variant": "GGCAGAGCUCAACACACCGUAGCAAAGUGGCUGUGGCUAGACUGUC", "note": "[G17C G21A C45U]", "self-cleavage": 0.92},
      {"variant": "GGCAGAGCUCAACACACCGUGGCAAAGUCGCUGUGGCCAGACUGCC", "note": "[G17C G29C U38C]", "self-cleavage": 0.05},
      {"variant": "GGCAGAGCUCAACACACCGUGGCAAAGUGUCUGUGGCUAUACUGCC", "note": "[G17C G30U G40U]", "self-cleavage": 0.04},
      {"variant": "GGCAGAGCUCAACACACCGUGGCAAAGUCGCUGUGGCUAGACUGCU", "note": "[G17C G29C C46U]", "self-cleavage": 0.2},
      {"variant": "GGCAGAGCUCAACACACCGUAUCAAAGUGGCGGUGGCUACACUGCC", "note": "[G17C G21A G22U U32G G40C]", "self-cleavage": 0},
      {"variant": "GGCAGAGCUCAACACACCGUUACAAAGUGGCUGUGGCUAGACUGGC", "note": "[G17C G21U G22A C45G]", "self-cleavage": 0.05},
      {"variant": "GGCAGAGCUCAACACACUGUGCCAAAGUGGCUGUCGCUAGACUGCC", "note": "[G17C C18U G22C G35C]", "self-cleavage": 0.07},
      {"variant": "GGCAGAGCUCAACACACCGUGGCAAAGUGCCUGUGGCUAGACUGAC", "note": "[G17C G30C C45A]", "self-cleavage": 0.06},
      {"variant": "GGCAGAGCUCAACACACCGUGGCAAAGUAGCUGUGGCUAGACUGGC", "note": "[G17C G29A C45G]", "self-cleavage": 0.08},
      {"variant": "GGCAGAGCUCAACACACCGUGGAAAAGUGGCUGGGGCUAGACUGCC", "note": "[G17C C23A U34G]", "self-cleavage": 0.01},
      {"variant": "GGCAGAGCUCAACACACCGUGACAAAGUGGCUGUGACUAAACUGCC", "note": "[G17C G22A G36A G40A]", "self-cleavage": 0.15},
      {"variant": "GGCAGAGCUCAACACACCGUGGAGAAGUGGCUGUGGUUAGACUGCC", "note": "[G17C C23A A24G C37U]", "self-cleavage": 0.14},
      {"variant": "GGCAGAGCUCAACACACCGUGGAAUAGUGUCUCUGGCUUGACUGCC", "note": "[G17C C23A A25U G30U G33C A39U]", "self-cleavage": 0.02},
      {"variant": "GGCAGAGCUCAACACACCGUGGCAAAGUGAAUGUUGCUAGACUACC", "note": "[G17C G30A C31A G35U G44A]", "self-cleavage": 0.02},
      {"variant": "GGCAGAGCUCAACACACCGUGGCAAAGUGGUUGAGGCUAGACUGCC", "note": "[G17C C31U U34A]", "self-cleavage": 0.01}
    ]}
  ]
}
